Measured values taken from ChEMBL document CHEMBL5113494, “Novel difluoromethyl-containing 1-((4-methoxy-3-(piperazin-1-yl)phenyl)sulfonyl)-1H-indole scaffold as potent 5-HT6R antagonists: Design, synthesis, biological evaluation, and early in vivo cognition-enhancing studies” (Bioorg Med Chem, 2022).

Key:
in vivo [1] = conditions: Sprague-Dawley, rat, po, 5 mg/kg
in vivo [2] = conditions: Sprague-Dawley, rat, po, 5 mg/kg; remark: listed apart in the source
in vivo [3] = conditions: Sprague-Dawley, rat, iv, 2 mg/kg
in vivo [4] = conditions: Sprague-Dawley, rat, po, 5 mg/kg; remark: listed apart in the source
physchem [5] = experiment: physchem
physchem [6] = conditions: octanol/water
[7] = Sprague-Dawley, rat, in vivo, iv, 2 mg/kg, 24 h
in vivo [8] = conditions: Sprague-Dawley, rat, po, 5 mg/kg; remark: listed apart in the source
[9] = biological target: 5-hydroxytryptamine receptor 6 (Homo sapiens, UniProt P50406)
Sequence of 5-hydroxytryptamine receptor 6 (P50406 whole entry): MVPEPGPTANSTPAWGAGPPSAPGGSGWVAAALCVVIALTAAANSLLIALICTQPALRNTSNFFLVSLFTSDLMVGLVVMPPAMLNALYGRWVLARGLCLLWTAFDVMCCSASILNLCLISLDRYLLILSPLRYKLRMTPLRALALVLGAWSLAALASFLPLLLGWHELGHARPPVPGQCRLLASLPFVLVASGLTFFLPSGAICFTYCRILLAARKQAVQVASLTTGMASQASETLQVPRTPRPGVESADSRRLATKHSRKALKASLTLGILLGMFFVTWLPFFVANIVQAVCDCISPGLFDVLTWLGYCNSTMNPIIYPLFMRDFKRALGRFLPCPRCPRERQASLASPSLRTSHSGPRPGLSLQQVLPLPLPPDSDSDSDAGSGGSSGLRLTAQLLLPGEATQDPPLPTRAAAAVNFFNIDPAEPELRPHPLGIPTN

in vitro [10] = conditions: mouse, microsomes
in vitro [11] = conditions: human, microsomes
in vitro [12] = conditions: human, microsomes; remark: listed apart in the source
in vitro [13] = conditions: rhesus monkey, microsomes
in vitro [14] = conditions: rat, microsomes
in vitro [15] = conditions: rhesus monkey, microsomes; remark: listed apart in the source
in vitro [16] = conditions: mouse, microsomes; remark: listed apart in the source
in vitro [17] = conditions: rhesus monkey, microsomes; remark: listed apart in the source
Cytochrome P450 2D6 = Cytochrome P450 2D6 (Homo sapiens, UniProt P10635)
Sequence of Cytochrome P450 2D6 (P10635 whole entry): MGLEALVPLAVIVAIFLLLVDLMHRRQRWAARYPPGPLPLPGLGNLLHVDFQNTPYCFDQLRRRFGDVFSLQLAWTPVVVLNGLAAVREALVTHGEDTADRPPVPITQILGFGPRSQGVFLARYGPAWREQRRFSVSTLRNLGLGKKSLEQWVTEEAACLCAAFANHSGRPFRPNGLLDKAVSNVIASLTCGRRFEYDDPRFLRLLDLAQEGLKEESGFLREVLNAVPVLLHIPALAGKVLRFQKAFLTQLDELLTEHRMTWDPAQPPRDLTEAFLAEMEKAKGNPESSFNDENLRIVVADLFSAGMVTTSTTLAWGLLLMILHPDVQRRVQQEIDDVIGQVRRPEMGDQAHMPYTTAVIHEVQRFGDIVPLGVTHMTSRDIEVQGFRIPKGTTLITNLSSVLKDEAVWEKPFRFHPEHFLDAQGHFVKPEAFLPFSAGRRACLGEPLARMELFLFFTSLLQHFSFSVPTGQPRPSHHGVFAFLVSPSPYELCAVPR

in vitro [18] = conditions: human, microsomes; remark: listed apart in the source
in vitro [19] = conditions: mouse, microsomes; remark: listed apart in the source
in vitro [20] = conditions: rat, microsomes; remark: listed apart in the source
in vivo [21] = conditions: Sprague-Dawley, rat, iv, 2 mg/kg; remark: listed apart in the source
Cytochrome P450 1A2 = biological target: T1, Cytochrome P450 1A2 (Homo sapiens, UniProt P05177)
T1 sequence (P05177 whole entry): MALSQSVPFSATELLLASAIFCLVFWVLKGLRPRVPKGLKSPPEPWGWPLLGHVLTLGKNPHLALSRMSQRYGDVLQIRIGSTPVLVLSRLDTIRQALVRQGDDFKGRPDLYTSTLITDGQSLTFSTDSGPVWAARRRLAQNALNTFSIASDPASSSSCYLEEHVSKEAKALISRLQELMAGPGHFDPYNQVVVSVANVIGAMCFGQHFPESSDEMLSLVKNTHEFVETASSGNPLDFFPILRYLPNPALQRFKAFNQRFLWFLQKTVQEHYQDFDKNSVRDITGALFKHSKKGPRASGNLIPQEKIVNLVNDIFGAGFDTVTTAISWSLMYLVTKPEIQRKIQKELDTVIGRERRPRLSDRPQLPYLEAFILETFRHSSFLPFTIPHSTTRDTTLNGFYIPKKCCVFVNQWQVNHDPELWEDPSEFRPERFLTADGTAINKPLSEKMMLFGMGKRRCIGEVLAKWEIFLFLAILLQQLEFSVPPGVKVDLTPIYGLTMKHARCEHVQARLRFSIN

Cytochrome P450 3A4 = Cytochrome P450 3A4 (Homo sapiens, UniProt P08684)
Sequence of Cytochrome P450 3A4 (P08684 whole entry): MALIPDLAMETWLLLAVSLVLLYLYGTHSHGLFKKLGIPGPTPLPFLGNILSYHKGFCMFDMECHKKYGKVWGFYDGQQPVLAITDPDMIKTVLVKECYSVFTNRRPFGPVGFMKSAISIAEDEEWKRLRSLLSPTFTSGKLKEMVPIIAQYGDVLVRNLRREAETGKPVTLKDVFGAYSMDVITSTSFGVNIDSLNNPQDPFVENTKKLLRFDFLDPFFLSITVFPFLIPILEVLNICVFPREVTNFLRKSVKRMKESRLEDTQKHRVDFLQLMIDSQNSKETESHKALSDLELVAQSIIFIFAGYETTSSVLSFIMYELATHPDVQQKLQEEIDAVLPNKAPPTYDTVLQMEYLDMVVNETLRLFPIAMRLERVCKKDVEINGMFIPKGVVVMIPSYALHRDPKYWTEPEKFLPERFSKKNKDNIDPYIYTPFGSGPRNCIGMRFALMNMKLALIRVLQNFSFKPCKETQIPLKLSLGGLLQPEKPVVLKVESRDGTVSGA

in vivo [22] = conditions: Sprague-Dawley, rat, iv, 2 mg/kg; remark: listed apart in the source
Cytochrome P450 2C19 = Cytochrome P450 2C19 (Homo sapiens, UniProt P33261)
Sequence of Cytochrome P450 2C19 (P33261 whole entry): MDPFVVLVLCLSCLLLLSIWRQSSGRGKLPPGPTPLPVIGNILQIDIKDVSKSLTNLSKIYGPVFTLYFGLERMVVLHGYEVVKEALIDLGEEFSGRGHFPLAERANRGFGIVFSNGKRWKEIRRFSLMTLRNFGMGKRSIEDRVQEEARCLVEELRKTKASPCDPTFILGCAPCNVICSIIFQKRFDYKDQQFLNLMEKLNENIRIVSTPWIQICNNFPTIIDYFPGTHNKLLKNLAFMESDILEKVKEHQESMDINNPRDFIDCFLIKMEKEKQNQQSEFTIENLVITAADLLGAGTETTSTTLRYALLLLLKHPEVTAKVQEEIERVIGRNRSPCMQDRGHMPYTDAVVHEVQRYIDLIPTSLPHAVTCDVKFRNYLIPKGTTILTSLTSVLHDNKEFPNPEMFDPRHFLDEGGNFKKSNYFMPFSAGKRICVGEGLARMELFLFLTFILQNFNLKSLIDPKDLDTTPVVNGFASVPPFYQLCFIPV

in vitro [23] = conditions: rat, microsomes; remark: listed apart in the source
in vivo [24] = conditions: Sprague-Dawley, rat, iv, 2 mg/kg; remark: listed apart in the source

**Q.** For `COc1ccc(S(=O)(=O)n2ccc3ccc(Cl)cc32)cc1N1CCNCC1`, which bioavailability at 24 h (in vivo [1]) is on record?
**A.** 6.31%

**Q.** What about the AUC(0-t) at 24 h (in vivo [2]) of the same molecule?
**A.** 38 ng·h/mL

**Q.** What about the Cmax at 24 h (in vivo [3]) of the same molecule?
**A.** 97 ng/mL

**Q.** What about the half-life at 24 h (in vivo [4]) of the same molecule?
**A.** 3.43 h

**Q.** What about the pKa (physchem [5]) of the same molecule?
**A.** 8.79

**Q.** What about the logP (physchem [6]) of the same molecule?
**A.** 3.64

**Q.** And the AUCt [7]?
**A.** 252 ng·h/mL

**Q.** And the Cmax at 24 h (in vivo [8])?
**A.** 9 ng/mL

**Q.** Which pKa (physchem [5]) does the source give for `COc1ccc(S(=O)(=O)n2ccc3ccc(F)cc32)cc1N1CCNCC1` here?
**A.** 8.82

**Q.** What about the logP (physchem [6]) of the same molecule?
**A.** 3.1

**Q.** For `COc1ccc(S(=O)(=O)n2cc(C)c3cc(Br)ccc32)cc1N1CCNCC1`, which logP (physchem [6]) is on record?
**A.** 3.85

**Q.** With `COc1ccc(S(=O)(=O)n2cc(C(F)F)c3ccc(Br)cc32)cc1N1CCNCC1` as the molecule, how does the pKa (physchem [5]) read?
**A.** 8.48

**Q.** What about the logP (physchem [6]) of the same molecule?
**A.** 3.61

**Q.** Which Ki [9] does the source give for `COc1cc(NS(=O)(=O)c2sc3cc(Cl)ccc3c2C)ccc1N1CCNCC1` here?
**A.** 0.0013 µM

**Q.** What does the source list for `COc1ccc(S(=O)(=O)n2cc(C(F)F)c3ccc(Cl)cc32)cc1N1CCNCC1`?
**A.** bioavailability at 24 h (in vivo [1]): 60.9%; remaining at 0.5 h, 1 µM (in vitro [10]): 72%; AUC(0-t) at 24 h (in vivo [2]): 497 ng·h/mL; remaining at 1 h, 1 µM (in vitro [11]): 71.5%; remaining at 0.5 h, 1 µM (in vitro [12]): 79.9%; remaining at 0.5 h, 1 µM (in vitro [13]): 34.8%; Cmax at 24 h (in vivo [3]): 67 ng/mL; remaining at 0.5 h, 1 µM (in vitro [14]): 66.2%; remaining at 1 h, 1 µM (in vitro [15]): 11.4%; remaining at […], 1 µM (in vitro [16]): 83.5%; remaining at […], 1 µM (in vitro [17]): 60.4%; IC50 (Cytochrome P450 2D6): > 10 µM; remaining at […], 1 µM (in vitro [18]): 91.3%; remaining at 1 h, 1 µM (in vitro [19]): 53.9%; pKa (physchem [5]): 8.57; remaining at […], 1 µM (in vitro [20]): 82.2%; logP (physchem [6]): 3.5; clearance at 24 h (in vivo [21]): 99 mL/min/kg; IC50 (Cytochrome P450 1A2): > 10 µM; IC50 (Cytochrome P450 3A4): 4.02 µM; AUC(0-t) at 24 h (in vivo [22]): 327 ng·h/mL; Cmax at 24 h (in vivo [8]): 42 ng/mL; IC50 (Cytochrome P450 2C19): > 10 µM; remaining at 1 h, 1 µM (in vitro [23]): 46.6%; Vd at 24 h (in vivo [24]): 37.9 L/kg

**Q.** With `COc1ccc(S(=O)(=O)n2cc(C)c3cc(Cl)ccc32)cc1N1CCNCC1` as the molecule, how does the logP (physchem [6]) read?
**A.** 4.13

**Q.** For `COc1ccc(S(=O)(=O)n2cc(C(F)F)c3cc(Br)ccc32)cc1N1CCNCC1`, which pKa (physchem [5]) is on record?
**A.** 8.59

**Q.** And the logP (physchem [6])?
**A.** 3.56
